The values below come from PMC4242493.

The list shows a part of the results. The list includes weakly bound sequences.

This test deals with MaxL homodimer (UniProt P61244). Briefly: universal protein-binding microarray (PBM). The following applies: PBS-based mixture, 10 nM His-tagged protein dimer, 2% milk, 200 ng/uL BSA, 50 ng/uL salmon testes DNA, 0.02% TX-100; detection with Alexa 488 anti-His …; high values mean tight binding; most listed sequences are background and not binding sites; double strand, one strand shown.
Sequence of UniProt P61244 (P61244 whole entry): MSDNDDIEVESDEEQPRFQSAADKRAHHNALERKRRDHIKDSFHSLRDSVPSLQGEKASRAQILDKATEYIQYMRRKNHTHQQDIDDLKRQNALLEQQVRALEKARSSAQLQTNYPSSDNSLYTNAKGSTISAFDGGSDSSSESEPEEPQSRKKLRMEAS
CACGGCAA: the binding signal (normalized occupancy) was found to be 0.0787.
CTGCACTC: the binding signal (normalized occupancy) came out at 0.0768.
To CCTTGGCA belongs 0.0761; to CAAGGTCC, 0.0744.
The figure for TAATTTCA is 0.0759.
The figure for CTACGGAA is 0.0718; for ACCGCGAG it is 0.0729.
ATTGTAAC: the binding signal (normalized occupancy) came to 0.0837.
For GAGTCACA, the binding signal (normalized occupancy) is 0.0828.
In the case of CGAATTTC, the binding signal (normalized occupancy) turned out to be 0.0754.
To GATATACC belongs 0.0834.
The figure for AATAAATA is 0.0736.
In the case of CTCAGTAC, the binding signal (normalized occupancy) was found to be 0.0743.
Regarding CACGACTA, the binding signal (normalized occupancy) amounted to 0.0775.
Take CACTAGGC: the binding signal (normalized occupancy) is 0.0738.
As for ACTGAAGC, the binding signal (normalized occupancy) was 0.0715.
Regarding AGTCGCCC, the binding signal (normalized occupancy) is 0.0692.
On to GGTGTCAC, for which the binding signal (normalized occupancy) stood at 0.0829.
To CGGCAAAC belongs 0.0699.
For the sequence TATAATAA, the binding signal (normalized occupancy) worked out at 0.0772.
To ACGGGTGG belongs 0.0818; to GCACTTCC, 0.0736; to CCACAAGA, 0.0769.
To GCTGATAC belongs 0.0767.
The figure for CCTTGACC is 0.0715; for GCAATTCA it is 0.0722; for AGCGGAGG it is 0.0684.
On to ACCGCCGT, for which the binding signal (normalized occupancy) amounted to 0.0684.
To AACATTGG belongs 0.0794.
The figure for GATCATGA is 0.0863.
To CATGTCGA belongs 0.0903; to ACTCCCAT, 0.0864.
With AACTAGCT, the binding signal (normalized occupancy) was 0.0693.
The figure for ATGAATCC is 0.0822; for ATGTTCTC it is 0.0739; for CGGGATAA it is 0.0773.
To CCCGATTA belongs 0.0768; to AGTGGTCA, 0.0751.
Regarding CCGTTTCC, the binding signal (normalized occupancy) was determined as 0.0708.
To GCGCACGA belongs 0.093; to CCCTAACG, 0.0797; to AATAGTAC, 0.072.
As for AAATGGGT, the binding signal (normalized occupancy) worked out at 0.0763.
To ACGGGGCC belongs 0.0746; to ATGCGTGC, 0.0969; to GGGACACA, 0.0736.
As for ACCGTGAA, the binding signal (normalized occupancy) amounted to 0.0721.
As for CCGATTAC, the binding signal (normalized occupancy) was determined as 0.0729.
To GCGGGTCA belongs 0.0811; to AACCGCTA, 0.0726.
On to ACAGGACT, for which the binding signal (normalized occupancy) amounted to 0.0726.
The figure for ACTGCAAA is 0.0709; for CATCTGAG it is 0.0821; for AGGGACGA it is 0.0704.
The figure for AAGAAGAA is 0.07; for ACACTGGT it is 0.0781.
To TCACTCGA belongs 0.0746; to CGATAGTA, 0.0757.
As to AGTAATTG, the binding signal (normalized occupancy) came to 0.0708.
To GGATCTCA belongs 0.0742.
As for TCACATGA, the binding signal (normalized occupancy) was 0.109.
As to ATGCTGGC, the binding signal (normalized occupancy) came out at 0.0864.
Turning to CCTGACTA, the binding signal (normalized occupancy) came out at 0.0777.
As to CCTCCAAA, the binding signal (normalized occupancy) amounted to 0.0742.
To AACCCATA belongs 0.0815; to ACTACCCT, 0.0795.
To CCTCGCCA belongs 0.074; to CATACCGA, 0.08; to ATTAAACA, 0.0726.
CCAGGTGA: the binding signal (normalized occupancy) turned out to be 0.0867.
Take CGTTATAA: the binding signal (normalized occupancy) came out at 0.079.
In the case of GACCACTA, the binding signal (normalized occupancy) came out at 0.0785.
To TCAAAAAA belongs 0.0703; to TCCGCCAA, 0.0678.
Consider GAGCTACC, for which the binding signal (normalized occupancy) amounted to 0.0676.
To GATTTGAA belongs 0.076; to TGGAACAA, 0.0712.
In the case of CACTGTCC, the binding signal (normalized occupancy) turned out to be 0.0763.
On to CCATCACG, for which the binding signal (normalized occupancy) was 0.0857.
The figure for AGAGCTGC is 0.0725.
With AGGTACAT, the binding signal (normalized occupancy) came to 0.0821.
The figure for CTAGCTAC is 0.0765.
The figure for GGACAGAC is 0.0754; for ACAGCATG it is 0.127.
Consider GTCCGCAC, for which the binding signal (normalized occupancy) was 0.0754.
As for AAAGTGAG, the binding signal (normalized occupancy) is 0.0728.
Take CAGTTCAG: the binding signal (normalized occupancy) is 0.0712.
The figure for GGTAGTAA is 0.0771; for GGATTACC it is 0.075; for CATCTAAC it is 0.0854.
CAACTCGA: the binding signal (normalized occupancy) is 0.0755.
Regarding TCTATACA, the binding signal (normalized occupancy) was 0.0873.
AATCGCAC: the binding signal (normalized occupancy) turned out to be 0.0779.
With AATGACAT, the binding signal (normalized occupancy) stood at 0.0822.
To AAACTCAC belongs 0.0759.
With CGTTGTAA, the binding signal (normalized occupancy) came to 0.0757.
The figure for GTATGCCA is 0.0806; for GATGCAAA it is 0.0761.
Consider AAGAGAAA, for which the binding signal (normalized occupancy) is 0.0696.
With ACGGTTGG, the binding signal (normalized occupancy) was found to be 0.0758.
Turning to GCTGGTCC, the binding signal (normalized occupancy) was determined as 0.0689.
To CTCAACGC belongs 0.0793; to AGAGTGAA, 0.0757.
Consider AAGAACTC, for which the binding signal (normalized occupancy) stood at 0.0732.
To CGATTAAG belongs 0.0743.
In the case of AAATCCTT, the binding signal (normalized occupancy) was 0.0722.
In the case of ACGCCAGA, the binding signal (normalized occupancy) turned out to be 0.0782.
As for AGTCTACA, the binding signal (normalized occupancy) came to 0.0708.
Turning to AGGGCACT, the binding signal (normalized occupancy) stood at 0.0712.
Regarding CATACGCA, the binding signal (normalized occupancy) turned out to be 0.0827.
